Data from PubChem BioAssay AID489038 (National Center for Advancing Translational Sciences (NCATS), 2010).
“And” between values parts separate entries of the source, which are not always exact repeats. Identical values can stand only once. The shares of active, inactive and inconclusive entries below differ from those in the screen. Where the call is inconclusive, the potency comes from a doubtful curve fit. The source made the active and inactive calls. Calls come from the whole dose curve; as a rule, active = well fitted inhibition curve with a large enough effect; inconclusive = small, poorly fitted or top-dose-only effect, or effect the other way; inactive = no such curve, though single readings can be large or run the other way.

Assay: DHR3 selectivity assay for inhibitors of ROR gamma transcriptional activity
Conditions: Drosophila S2 Gal4-DHR3 UAS-luciferase, 20 h; series mostly up to 92.2 µM
Summary of the method: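 Drosophila Schneider cells stably expressing a Gal4-DHR3 transactivation domain fusion (metallothionein promoter) and a UAS-driven Photinus luciferase reporter. Compounds were preincubated 1 h, then expression was induced with 700 uM copper sulfate for 20 h at ambient temperature. Luminescence was the read-out.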
Potency is the fitted concentration of half-maximal effect; tags give direction and shape of the fitted curve.

SMILES	Potency
COc1cc(O)c(C(CC(=O)N2CCCC(C)C2)c2ccc(OC)c(OC)c2)c(OC)c1 (centres undefined)	inconclusive: 2.04 µM [inhibitor, full curve, poor fit]
COc1cc(O)c(C(CC(=O)N2CCCC2)c2ccc3c(c2)OCO3)c(OC)c1 (centres undefined)	inconclusive: 0.575 µM [inhibitor, partial curve, poor fit]
CCc1ccc(O)c(C(CC(=O)N2CCCC(C)C2)c2ccc3c(c2)OCO3)c1 (centres undefined)	inconclusive: 0.0911 µM [activator, full curve, poor fit]
COc1cc(OC)c(C(CC(=O)N2CCCC(C)C2)c2ccc3c(c2)OCO3)c(OC)c1 (centres undefined)	inactive
CCOc1ccc(O)c(C(CC(=O)N2CCCC(C)C2)c2ccc3c(c2)OCO3)c1 (centres undefined)	inconclusive: 45.7 µM [activator, partial curve, poor fit]
COc1ccc(OC)c(NC(=S)N(CCc2c(C)[nH]c3ccccc23)Cc2cccs2)c1	inconclusive: 20.4 µM [activator, full curve]
C#CCOc1cc(OC)cc(OC)c1C(CC(=O)N1CCCC(C)C1)c1ccc2c(c1)OCO2 (centres undefined)	inconclusive: 0.0057 µM [activator, full curve, poor fit]
CC1C2C3=CC[C@@H]4[C@@]5(C)CCC(O)C(C)(C)[C@@H]5CC[C@@]4(C)[C@]3(C)CC[C@@]2(C(=O)O)CC[C@H]1C (some centres undefined)	inconclusive: 18.2 µM [inhibitor, full curve, poor fit]
COc1cc(O)c(C(CC(=O)N2CCC(c3ccccc3)CC2)c2ccc3c(c2)OCO3)c(OC)c1 (centres undefined)	inactive and inconclusive: 7.24 µM [inhibitor, partial curve, poor fit]
COc1cc(O)c(C(CC(=O)N2CCC(Cc3ccccc3)CC2)c2ccc(OC)c(OC)c2)c(OC)c1 (centres undefined)	inconclusive: 0.0023 µM [activator, full curve, poor fit]
CN1CCN(C(=O)CCN2C(=O)/C(=C\c3ccccc3F)SC2=S)CC1	inconclusive: 16.2 µM [activator, full curve]
CC1CCCN(C(=O)CC(c2ccccc2)c2ccccc2O)C1 (centres undefined)	inconclusive: 7.24 µM [activator, full curve, poor fit]
CCOC(=O)c1sc(NC(=O)c2cc3c(s2)CCC(C)C3)nc1C (centres undefined)	active: 0.0512 µM
CCOC(=O)C1CCN(CC(=O)Nc2cc(C)nn2-c2nc3ccccc3s2)CC1	active: 7.24 µM
CC(C)(C)c1ccc(-c2noc(CCC(=O)Nc3cccnc3)n2)cc1	active: 0.0512 µM
COC(=O)Cn1c(CN2CCc3ccccc3C2)nc2c1c(=O)n(C)c(=O)n2C	active: 8.12 µM
CCCC1CCN(C(=O)CC(c2ccc3c(c2)OCO3)c2c(O)cc(OC)cc2OC)C1 (centres undefined)	inconclusive: 0.456 µM [activator, full curve, poor fit]
COc1cc(O)c(C(CC(=O)N2CCC(Cc3ccccc3)CC2)c2ccc(C)cc2)c(OC)c1 (centres undefined)	inconclusive: 16.2 µM [inhibitor, full curve, poor fit]
Cc1cc(C)c2sc(NC(=O)c3ccc(N4C(=O)CCC4=O)cc3)nc2c1	active: 0.102 µM
